# Laboratory results: the RNAGym collection of RNA variant scans (doi:10.1073/pnas.2313332121)
# Variants at the background level are over-represented here.
# B1: TPR 5TU (parent)
# chain: GGAUCUUCUCGAUCUAACAAAAAAGACAAAUCUGCCACAAAGCUUGAGAGCAUCUUCGGAUGCAGAGGCGGCAGCCUUCGGUGGCGCGAUAGCGCCAACGUUCUCAACUAUGACACGCAAAACGCGUGCUCCGUUGAAUGGAGUUUAUCAUG
# Variants of: B1
# Experiment: polymerase ribozyme fitness, log enrichment relative to wild type (log ratio); higher = more active; in vitro selection for triplet polymerase activity
# In short: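 Genotype fitness is the logarithm of its enrichment divided by wild-type enrichment, using inverse-variance-weighted averages of replicates. That logarithm is base 2. Enrichment was measured by Illumina sequencing of input and output libraries from one triplicate in vitro selection round, with frozen incubation at −7 °C, on PCR-built, transcribed mutant libraries of each subunit of a heterodimeric triplet polymerase ribozyme, retaining genotypes with ≥10 input reads and ≥1 read per output.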
row,Variant,polymerase ribozyme fitness (log ratio)
1,GGAUCUUCUCGAUCUAACAAAAAAGACAAAUGUGCCACAAAGCUAGAGACCAUCUUAGGAUGCAGAGGCGGCAGCCUUCGGUGGCGCGAUAGCGCCAACGAUCUCAACUUUGACACGCAAAACGCGUGCUCCGUUGAAUGGAGUUUACCAUG [C32G U45A G50C C57A U101A A110U U148C],≤ -4.2
2,GGAUCUUCUCGAUCUAACAAAAAAGACAAAUGUGCCACAAAGCUGCAGAGCAUCUUCGGAUGCAGAGGCGGCAGCCUUCGGUGUCGAGAUAGCGCCAACGUUCUCAACUAUGACACGCAGAACGCGUGCUCCGUAGAAUGGAGUUCAUCUUG [C32G U45G G46C G84U C87A A120G U135A U146C A150U],≤ -4.2
3,GGAUCUUCUCGAUCUAACAAAAAAGACAAAUGUGCCACAAAGCUUGAGAGCAACUUCGGAUGCAGAGUCGGCAGCGUUCGGUGGCGCGAUAGCGCCAACGUUCUCAACUAUGACACGCAAAACGCGUGCACUGUUAAAUGGUGUUUAUCAUG [C32G U53A G68U C76G U130A C132U G136A A142U],≤ -4.2
4,GGAUCUUCUCGAUCUAACAAAAAAGACAAAUGUGCCACAAAGCUUGAGAGCAUCGUCGGAUGCAGAGGCGGCAGCCUUCGGUGGCGGGAUAGCGCCAACGUUCUCAACUAUGACACGCAAAACGCGUGCUCCGUUGAUUGGAGUUUAUCUUG [C32G U55G C87G A138U A150U],≤ -4.2
5,GGAUCUUCUCGAUCUAACAAAAAAGACAAAUGUGCCACAAAGCUUGAGAGCAUCGUCGGAUGCAGAGGCGGCAGCCUUCGGUGGCGCGAUAGAGCCAACGUUGUCAACUAUGACACGCAAAACGCGUGCUCCGUUGAAUGGAGUUUAUCAUG [C32G U55G C93A C103G],≤ -4.2
6,GGAUCUUCUCGAUCUAACAAAAAAGACAAAUGUGCCACAAAGCUUGAGAGCAUCUUCGGAUGCAGAGGCGGCAGCCCUCGGUGGAGCGAUAGCGCCAACGUUCUCAACUAUGACACGCAAAACGCGUGCUACGUUGAAUGGAGUUUAUCAUG [C32G U77C C85A C131A],≤ -4.2
7,GGAUCUUCUCGAUCUAACAAAAAAGACAAAUGUGCCACAAAGCUUGAGAGCAUCUUCGGAUGCAGAGGCGGCAGCCUUCGGUGGCGCGAGAGCGCCAACGUUCUCAACUAUGACACGCAAAACGCGUGCUCCGGUGAAUGAAGUUUAUCAUG [C32G U90G U134G G141A],≤ -4.2
8,GGAUCUUCUCGAUCUAACAAAAAAGACAAAUUUGCCACGAAGCUUGAGAUCAUCUUCGGAUGCAGAGGCGGCGGCCUUCGGUGGCGCGAUAGCGCCAACGUUCUCAACCAUGACACGCAAAACGCAUGCUCCUUUGAAUGGAGUUUAUCAUG [C32U A39G G50U A73G U109C G126A G133U],≤ -4.2
9,GGAUCUUCUCGAUCUAACAAAAAAGACAAAUUUGCCACACAGCUUGAGAGCAUCUUCGGAUGCAGAGGCGGCAGCCUUCGGUGGGGCGAUAGCGCCAACGUUAUCAACUAUGACACGCAAAACGCGUGCUCCGUUGAAUGGAGUUUAUCAUG [C32U A40C C85G C103A],≤ -4.2
10,GGAUCUUCUCGAUCUAACAAAAAAGACAAAUUUGCCACAAAGCUUGAGUGCAUCUUCGGAUGCAGAGGCGGCAGCCUUCGGUGGCGCGAUAGCGCCAACGUUCUCAACUAUGACACGCAAAACGCGUGCUCCGUUGAAUGGAGUUUAUCAUG [C32U A49U],-4.14
11,GGAUCUUCUCGAUCUAACAAAAAAGACAAAUUUGCCACAAAGCUUGAGAGCAUCUUCGGGUGCAGAGGCGGCAGCCUUCGGUGGCGCGAUAGCGCCAACGUUCUCAACUAUGACACGCAAAACGCGUGCUCCGUUGAAUGGGGUUUAUCAUG [C32U A60G A142G],-3.31
12,GGAUCUUCUCGAUCUAACAAAAAAGACAAAUUUGCCACAAAGCUUGAGAGCAUCUUCGGAUGCAGAGGCGGCAGCCUUCGGUGGCGCGAUAGCGCCAACGUUCUCAACUAUGACACGCCAAACGCGUGCUCCGUUGAAUGGAGUUUAUGAUG [C32U A119C C149G],≤ -4.2
13,GGAUCUUCUCGAUCUAACAAAAAAGACAAAUUUGCUACAAAGCUUGAGAGCAUCUUCGGAUGCAGAGACGGCAGCCUUCGGUUGCGCGAUAGCGCCAACGUUCUCAACUAUGACACGCAAAACGCGUGCUCCGUUGAAUGGAGUUUAUCAUG [C32U C36U G68A G83U],≤ -4.2
14,GGAUCUUCUCGAUCUAACAAAAAAGACAAAUUUGCCAUAAAGCUUGAGCGCAUCUUCGGAUGCAGAGGCGGCAGCCUUCGGUGGAGCGAUAGCGCCAACGUUCUCAACUAUGACACGCAAAACGCCUGCUCCGUUGAAUGGAGUUUAUCAUG [C32U C38U A49C C85A G126C],≤ -4.2
15,GGAUCUUCUCGAUCUAACAAAAAAGACAAAUUUGCCAUAAAGCUUGAGAGCAUCUUCGGAUGCAGAGGAGGCAGCCUACGGUGGCGCGAUAGCGCCAAGGAUCUCAACUAUGACACGCAAAACGCGCGCUCCGUUGAAUGGAGUUUAUCAUG [C32U C38U C69A U78A C99G U101A U127C],≤ -4.2
16,GGAUCUUCUCGAUCUAACAAAAAAGACAAAUUUGCCAUAAAGCUUGAGAGCAUCUUCGGAUGCAGAGGCGGCAGCCUUCGGUGGCGCGAUAGGGCCAACGUUCUCAACUAUGACACGCAAAGCGCCUGCUCCGUUGAAUGGAGUAUAUCAUG [C32U C38U C93G A122G G126C U145A],≤ -4.2
17,GGAUCUUCUCGAUCUAACAAAAAAGACAAAUUUGCCACAAAGCUUGAGAGAUUCUUCGGAUGCAGAGGCGGCAGCCUUCGGUGGCGCGAUAGCGCGAACGUUCUCAACUAUGACACGCAAAACGCGUGCUCCGUUUAAUGGAGUUUAUCAUG [C32U C51A A52U C96G G136U],≤ -4.2
18,GGAUCUUCUCGAUCUAACAAAAAAGACAAAUUUGCCACAAAGCUUGAGAGCAUAUUCGAAUGCAGAGGCGGCAGCCUUCGGUGGCGCGAUGGAGCUAACGUUCUCAACUAUGGCACGCAAAACGCGUGCUCCGUGGAAUGGAGUUUCUCAUG [C32U C54A G59A A91G C93A C96U A113G U135G A147C],≤ -4.2
19,GGAUCUUCUCGAUCUAACAAAAAAGACAAAUUUGCCACAAAGCUUGAGAGCAUCUUCGGAUGCAGAGGGGGUAGCCUUCGGUGGCGCCAUAGCGCCAACGUUCUCAACUAUGACACGCAAAACGCGUGCUCCGUGGAAUGGAGUUUAUCAUG [C32U C69G C72U G88C U135G],≤ -4.2
